Variants at the background level are over-represented here.
B1: TPR 5TU (parent)
chain: GGAUCUUCUCGAUCUAACAAAAAAGACAAAUCUGCCACAAAGCUUGAGAGCAUCUUCGGAUGCAGAGGCGGCAGCCUUCGGUGGCGCGAUAGCGCCAACGUUCUCAACUAUGACACGCAAAACGCGUGCUCCGUUGAAUGGAGUUUAUCAUG

Variants of: B1
Experiment: polymerase ribozyme fitness, log enrichment relative to wild type (log ratio); higher = more active; in vitro selection for triplet polymerase activity
How it was run: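 One round of in vitro selection, in triplicate, was applied to PCR-built, transcribed mutant libraries of each subunit of a heterodimeric triplet polymerase ribozyme. The steps were annealing with a biotinylated primer, partner subunit and triplets, incubation frozen at −7 °C, gel excision of extended constructs, streptavidin-bead capture and RT-PCR. Fitness is the logarithm, base 2, of genotype enrichment over wild-type enrichment from inverse-variance-weighted replicate averages of Illumina-sequenced inputs and outputs, keeping genotypes with ≥10 input reads and ≥1 read per output.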

| Variant | polymerase ribozyme fitness (log ratio) |
| --- | --- |
| A66G C69U | ≤ -4.2 |
| C69U A89G C103G | ≤ -4.2 |
| G68U G94C C95A A115U G136U | ≤ -4.2 |
| C69U G83A | -3.04 |
| G68U G71U G141C | ≤ -4.2 |
| G67U G94C A119C U134G A147C | ≤ -4.2 |
| G67C C96U A107U C118U | ≤ -4.2 |
| G68A A91G | ≤ -4.2 |
| G65U U82A C93U C95G | ≤ -4.2 |
| C69G G71A A91U C125G | ≤ -4.2 |
| C69A U102G | ≤ -4.2 |
| G68C G92U | ≤ -4.2 |
| A66C G83U | ≤ -4.2 |
| G67A A107G C123U A137C | ≤ -4.2 |
| G68C C87A | ≤ -4.2 |
| A66G A113U U146G | ≤ -4.2 |
| G67U U82A G83U C114G G126A G143A | ≤ -4.2 |
| G68A G81A C95A A150C G152A | ≤ -4.2 |
| G67A C118U G126C | ≤ -4.2 |
| G68C G83U G92A U102A A137G A142G | ≤ -4.2 |
| A66U C72G C125A G126C | ≤ -4.2 |
| C69U C76A C93U | ≤ -4.2 |
| G68A U77C C87G U90G A115U | ≤ -4.2 |
| G68A U151A | ≤ -4.2 |

| Variant | polymerase ribozyme fitness (log ratio) |
| --- | --- |
| G70A C85A G88A G100A C125A U139C | ≤ -4.2 |
| G67C C69A G71U G86U U102A A121C | ≤ -4.2 |
| G68A A97U C118U | ≤ -4.2 |
| G68A C75U C85G G136U U148A | ≤ -4.2 |
| C69A C87A C114G U145G | ≤ -4.2 |
| C69A G81U G84U | ≤ -4.2 |
| G67A U144A | ≤ -4.2 |
| G67C A106U | ≤ -4.2 |
| C69U G86U C114U G141U | ≤ -4.2 |
| A66G C93U C108U C132G C149A | ≤ -4.2 |
| G70A C85U A113U G117A G141A U145A A150C G152A | ≤ -4.2 |
| A66G C85A A91G U148A | ≤ -4.2 |
| C69G C93U | -3.1 |
| C69G C96U C103A | -3.44 |
| G67U G70C G86A C132G | ≤ -4.2 |
| C69U C76G U130A | ≤ -4.2 |
| A66C C93A G126U G136C | ≤ -4.2 |
| A66G U78G U90C U135G | ≤ -4.2 |
| G70A A91U U111G G136C | ≤ -4.2 |
| G68C C85U A89C C118G G140U U148A | ≤ -4.2 |
| G68U C99U G117C G143A | ≤ -4.2 |
| G68C A142C | ≤ -4.2 |
| A66C C72U G84U | ≤ -4.2 |
| A66U C75G U82G A106C C116U | ≤ -4.2 |

| Variant | polymerase ribozyme fitness (log ratio) |
| --- | --- |
| G68C G92U G126A A137G G141C U151C | ≤ -4.2 |
| G67A A119G A150U | ≤ -4.2 |
| G67U U109G G124A | ≤ -4.2 |
| G68C A121C | ≤ -4.2 |
| G68A A73G C85U C87U A91U U134A G143A U148A | ≤ -4.2 |
| C69G U101G G133U | -3.95 |
| C69A U101G C105G U139C | ≤ -4.2 |
| G68A G94U U151A | ≤ -4.2 |
| C69U G80C | ≤ -4.2 |
| C69U A73U | -2.64 |
| C69U A98U | -1.15 |
| G68C C79U G84U A113U | ≤ -4.2 |
| A66G G81U G84C C118G | ≤ -4.2 |
| G67C U82A G94C G133C A137C G141A A150U | ≤ -4.2 |
| G68C C85G G136C | ≤ -4.2 |
| G68A C85A | ≤ -4.2 |
| G68A C87A C108U C125U | ≤ -4.2 |
| G70A G81A A122U | ≤ -4.2 |
| G68U G80C U101G A115G C132U U144C | ≤ -4.2 |
| G68A C105G G140U U145C | ≤ -4.2 |
| A66C G74A | ≤ -4.2 |
| G67U C87U | -3.88 |
| G68U C99U G124C | ≤ -4.2 |
| G68U G88C | ≤ -4.2 |

| Variant | polymerase ribozyme fitness (log ratio) |
| --- | --- |
| C69U C93A A107G | ≤ -4.2 |
| C69U C87A | ≤ -4.2 |
| C69A C93U C103G U104A U148G | ≤ -4.2 |
| C69G C99A A115G | -3.71 |
| C69A C76G U90C | ≤ -4.2 |
| G68U G92C | ≤ -4.2 |
| A66G G70C G88A G128C A137G G140A | ≤ -4.2 |
| G68C C93U G140A A147G | ≤ -4.2 |
| C69U A73C C79U G80C C87G A89U G141A | ≤ -4.2 |
| A66G C76U C85A C96U | ≤ -4.2 |
| A66C C87A A106C G136A U146A | ≤ -4.2 |
| G68U C149G | ≤ -4.2 |
| A66C G92U | ≤ -4.2 |
| A66C G92A | ≤ -4.2 |
| A66G C93U A107U A138U U139A | ≤ -4.2 |
| C69U C96G C125U | -1.78 |
| G68C A106C C108U C116U C118A | ≤ -4.2 |
| A66U C87U U90G | ≤ -4.2 |
| G68A G83U C118G G136U | ≤ -4.2 |
| G68C G86U A89U C96A A110U C114U | ≤ -4.2 |
| C69A A73C U144A | ≤ -4.2 |
| G67A C116U A138U | ≤ -4.2 |
| G68U A73G C76U A91U A98G C99A G112U | ≤ -4.2 |
| A66G G83U | -3.62 |

| Variant | polymerase ribozyme fitness (log ratio) |
| --- | --- |
| G68U C69U U102G U145G | ≤ -4.2 |
| A66G C69G A73U C76G U77C U135G A138G | ≤ -4.2 |
| G68A C87A A107G G117U C132G | ≤ -4.2 |
| C69G C85U U101G | -1.25 |
| G67A G92A A106G | ≤ -4.2 |
| A66U C76G C85A C95U U102G A113U C116A A142C | ≤ -4.2 |
| C69U U78A A97U G143C | ≤ -4.2 |
| C69A A91G A98U G100A U134C | ≤ -4.2 |
| C69A A119U | -2.7 |
| A66C G74U G81C C87A C118A G124A | ≤ -4.2 |
| C69U G81U | -2.07 |
| A66U C87A A106C A138U | ≤ -4.2 |
| G67C C99U | ≤ -4.2 |
| C69G C75G | -2.12 |
| A66G A91G A110C | ≤ -4.2 |
| C69G G83C | -4.05 |
| A66G C87A A120G U127A G136A | ≤ -4.2 |
| G67A C87U A107U C125G G126C | -4.14 |
| A66G C85A G126C | ≤ -4.2 |
| A66C C76U U82G G92C | ≤ -4.2 |
| G68U C132U U135A | ≤ -4.2 |
| G68U C85G U139A U145G U146G | ≤ -4.2 |
| G68C A73G C85G A97G U101G U144C | ≤ -4.2 |
| A66C A122U | ≤ -4.2 |

| Variant | polymerase ribozyme fitness (log ratio) |
| --- | --- |
| C69A C87A G117A | ≤ -4.2 |
| A66G G80C G92C | ≤ -4.2 |
| G68U C93U | ≤ -4.2 |
| G68U C93A | ≤ -4.2 |
| G67A C75U C93A U146G | ≤ -4.2 |
| G68A U77A U82C G88A U111C U134C | ≤ -4.2 |
| G67C G92U C99U A107U U148A | ≤ -4.2 |
| G67A C75U C93A | ≤ -4.2 |
| G68C G84U A98G | ≤ -4.2 |
| A66U G94A G100U U148G | ≤ -4.2 |
| C69A G92U | -1.15 |
| G67A C87U | -4.13 |
| A66C C72U | ≤ -4.2 |
| G68A C76A C85U G128A C129A | ≤ -4.2 |
| A66C C103G C108A G117A | ≤ -4.2 |
| A66G G81A C87U U146G | ≤ -4.2 |
| C69U G94A A122G U135A U146G | -2.95 |
| A66C U82C G124U | ≤ -4.2 |
| A66U G88A U109A A122C | ≤ -4.2 |
| C69A U101G G126A | -0.681 |
| A66C G94U | ≤ -4.2 |
| A66G G71U | ≤ -4.2 |
| A66G C69U A91G C105G A120U | ≤ -4.2 |
| G65U U135C A150G | ≤ -4.2 |

| Variant | polymerase ribozyme fitness (log ratio) |
| --- | --- |
| G67U G88U G141C A150G | ≤ -4.2 |
| G67C G68U U82C U90A C95U G112A G124A U146G | ≤ -4.2 |
| C69G A91U U102C | ≤ -4.2 |
| C69A G84A | -2.31 |
| G67A C85U A110U G124C A147U | ≤ -4.2 |
| G68C G84A C85A | ≤ -4.2 |
| A66U G84U A107C G117C U148G | ≤ -4.2 |
| G67C G71C C76G G83A C87U G88U C123U G141A | ≤ -4.2 |
| C69U C132G G140U | -1 |
| G68C C99G G140C | ≤ -4.2 |
| G68C G71U C85U A91U G92U U102A G128A | ≤ -4.2 |
| G67A C76A | -4.16 |
| G65U G133C G141U | ≤ -4.2 |
| A66G C105U A142C | ≤ -4.2 |
| A66C G92C C118A | ≤ -4.2 |
| G68A C75A A113C | ≤ -4.2 |
| A66C C85A | ≤ -4.2 |
| C69A C93G C103A U130A | ≤ -4.2 |
| C69U U77G G92C C99U C103U U111A | ≤ -4.2 |
| G70A A73G C79U G88C G133C A137C | ≤ -4.2 |
| G68A U130G | ≤ -4.2 |
| G68C G83U G143U | ≤ -4.2 |
| C69U C72U | -1.99 |

Reference: the RNAGym collection of RNA variant scans (doi:10.1073/pnas.2313332121)
